Our source for the z-score values is PubChem BioAssay AID488969 (Vanderbilt High Throughput Screening Facility, 2010).

In all, about 110,000 compounds were measured (“z-score”: median about -0.1, highest 2% from about 2 on). The list shows a part of the results.

The target in the assay is Metabotropic glutamate receptor 8 (Rattus norvegicus) (UniProt P70579). Put plainly: rat mGluR8 modulators via GIRK flux, primary screen, cell-based, thallium flux, HTS (AID 488969). The conditions noted are these: HEK293 rat mGluR8, GIRK (G protein-gated inwardly rectifying potassium channel) thallium flux, FluoZin2; at 10 µM; stronger effect = higher value; submaximal glutamate (EC20) added with thallium.
Sequence of UniProt P70579 (P70579 whole entry, looked up): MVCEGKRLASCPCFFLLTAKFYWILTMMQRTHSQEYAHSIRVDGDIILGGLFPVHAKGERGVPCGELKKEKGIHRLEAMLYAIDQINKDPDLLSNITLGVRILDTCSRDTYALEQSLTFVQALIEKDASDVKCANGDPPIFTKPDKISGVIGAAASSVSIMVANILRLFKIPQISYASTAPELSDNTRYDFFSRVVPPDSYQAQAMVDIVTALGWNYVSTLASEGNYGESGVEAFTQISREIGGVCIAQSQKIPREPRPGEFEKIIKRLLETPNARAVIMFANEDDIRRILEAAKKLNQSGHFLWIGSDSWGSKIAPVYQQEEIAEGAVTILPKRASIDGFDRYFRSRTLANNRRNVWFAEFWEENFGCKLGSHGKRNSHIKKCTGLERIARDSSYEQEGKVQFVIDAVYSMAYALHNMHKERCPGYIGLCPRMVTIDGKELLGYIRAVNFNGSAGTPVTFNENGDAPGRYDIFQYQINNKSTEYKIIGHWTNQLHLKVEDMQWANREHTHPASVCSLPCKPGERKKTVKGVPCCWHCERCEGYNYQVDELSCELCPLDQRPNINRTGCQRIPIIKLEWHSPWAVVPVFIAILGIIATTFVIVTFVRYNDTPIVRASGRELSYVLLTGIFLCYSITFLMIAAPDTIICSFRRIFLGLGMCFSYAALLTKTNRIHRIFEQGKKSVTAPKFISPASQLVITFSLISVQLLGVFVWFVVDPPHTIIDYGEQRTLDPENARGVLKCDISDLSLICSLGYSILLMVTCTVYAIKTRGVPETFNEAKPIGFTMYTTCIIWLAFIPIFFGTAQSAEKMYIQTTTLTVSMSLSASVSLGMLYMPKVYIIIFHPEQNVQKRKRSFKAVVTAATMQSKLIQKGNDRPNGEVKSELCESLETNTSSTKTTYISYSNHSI
For the compound `CCn1c(SCC(=O)N/N=C/c2ccc(OC)c(OC)c2)nc2ccccc21`, the z-score is -0.299. For `O=C(CSc1c[nH]c2ccccc12)N1CCCc2ccccc21` the value was -0.147; for `COc1ccc(-n2c(Cc3cccn3C)nnc2SCC(=O)Nc2cccc(Cl)c2)cc1`, -0.585. `COc1ccc2[nH]c(=O)c(CN(C(=O)c3ccco3)C3CCCCC3)cc2c1` yielded a z-score of -1.83. The compound `CCCOc1ccc(Br)cc1/C=N/NC(=O)c1cc(OC)c(OC)c(OC)c1` registered a z-score of -0.175. `COc1ccc(CC(=O)N2CCOCC2)cc1` had a z-score of 0.451. Compound `CCCCCOC(=O)Cn1c(=O)oc2ccc(C)cc21` came in with a z-score of 0.104. Compound `Cc1cc(=O)oc2cc(NC(=O)c3cc4ccccc4o3)ccc12` registered a z-score of -0.406. With `CCNc1ccc(Br)cc(C(=O)/C=C/c2ccc3c(c2)OCO3)c1=O`, the z-score is -0.591.

For the compound `COc1cc(C(=O)NCc2cn3ccsc3n2)cc(OC)c1OC`, the z-score was -0.0269. Compound `CCCCCSc1nnc2c(n1)OC(C)N(C(C)=O)c1ccccc1-2` (centres undefined) returned a z-score of -0.271.

Take `COC(=O)N/N=C(\C)c1ccc(C)c([N+](=O)[O-])c1`: the z-score amounted to 0.166. For `Cc1ccc(/C=c2/sc3n(c2=O)CCCN=3)o1` the value was -1.36; for `CCCn1c(N)c(Sc2ccccc2)c(=O)n(CCC)c1=O`, -0.0906. As to `Cc1ccc(S(=O)(=O)Nc2ccc(-c3csc(-c4ccccc4)n3)cc2)cc1`, the z-score was -0.203.

Compound `CCN(CC)S(=O)(=O)c1ccc2c(c1)nc(SC(C)C(N)=O)n2-c1ccc(OC)cc1` (centres undefined) registered a z-score of -0.562. For `Cc1cc(C)c(C(N)=O)c(NC(=O)Nc2ccccc2Cl)n1` the value was -0.272; for `Cc1ccc(Nc2nc(CSc3nnc(-c4ccc(F)cc4)n3C)cs2)cc1`, -0.652; for `O=S(=O)(CCSc1ccccn1)c1nc2ccccc2s1`, -0.489. In the case of `COc1ccccc1OCCCOc1c(Cl)cc(C)cc1Cl`, the z-score is -0.206. `CCOc1ccc(CN(C)CC(=O)Nc2ccc(N3CCOCC3)cc2)cc1OC` showed a z-score of 0.124. Regarding `O=C(CSc1nnc(-c2ccco2)o1)NCC(=O)c1ccccc1`, the z-score is -0.0835. For `CCCn1c(C)cs/c1=N\C(=S)Nc1ccccc1` the value was 0.291; for `CC1=NN(C(=O)c2csc(C)c2)C(O)(C(F)(F)F)C1` (centres undefined), -0.22; for `CC1CCc2cc(F)ccc2N1C(=O)c1ccc2c(c1)OCO2` (centres undefined), -0.0933. Take `CCCN1CNC(=S)N(c2ccc(C(=O)OCC)cc2)C1`: the z-score was -2.04. As for `CCOc1ccccc1NC(=O)C1CCCCN1S(=O)(=O)c1ccc(F)cc1` (centres undefined), the z-score was -0.124. On to `COc1ccccc1N1CC(C(=O)Nc2ccc(S(=O)(=O)N3CCOCC3)cc2)CC1=O` (centres undefined), for which the z-score was -0.236. For `Cc1cccc(-n2c(SCC(=O)NCc3ccc4c(c3)OCO4)nc3ccccc3c2=O)c1` the value was 0.458. Take `COc1cccc(NC(=S)NCCCN2CCOCC2)c1`: the z-score was -0.219. For `COC(=O)C1=C(C(=O)c2ccc(C)cc2)C(c2ccc(OC)c(OC)c2)n2nnnc2N1` (centres undefined) the value was 0.358. `COc1ccc(/C=N\NS(=O)(=O)c2ccc(Cl)cc2)cc1COc1ccccc1[N+](=O)[O-]` came in with a z-score of -0.168.

Compound `CCCCn1nnnc1SCC(=O)Nc1ccc2c(c1)OCO2` had a z-score of -0.377. For `O=C(NCCCn1ccnc1)C(=O)NCC1OCCCN1S(=O)(=O)c1ccc(Cl)cc1` (centres undefined), the z-score is -0.242. With `CCOC(=O)Cc1csc(SCC(=O)/C(C#N)=C(\C)N)n1`, the z-score was 0.102. As to `O=C(Cc1cccs1)NCC1CCCO1` (centres undefined), the z-score is 0.0378. In turn, `c1ccc(-n2ncc3c(N4CCCCC4)ncnc32)cc1` returned a z-score of -0.259. `Cc1ccc(CNC(=O)COc2ccc(S(=O)(=O)NC(C)C)cc2)cc1` displayed a z-score of 0.318. Regarding `COc1ccccc1CNc1nc2nc(C)cc(=O)n2[nH]1`, the z-score is -0.451. `O=C(Nc1ccc2oc(=O)ccc2c1)c1cccnc1Cl`: the z-score stood at 0.132. `Cc1cc(C)cc(CSCC(=O)N/N=C/c2ccc(OCC(=O)NCc3ccco3)cc2)c1` returned a z-score of -0.748. In turn, `COC(=O)c1cc(NC(=O)Cc2ccc(OC)cc2)cc(C(=O)OC)c1` gave a z-score of -0.475.

Turning to `O=C(CCCn1c(=S)[nH]c2cc3c(cc2c1=O)OCO3)N1CCN(c2ccccc2)CC1`, the z-score is -0.724. Turning to `O=C(Nc1ccc(F)cc1)c1ccccc1S(=O)(=O)c1ccccc1[N+](=O)[O-]`, the z-score is -0.304. As for `CCNc1nc(N)nc(Oc2ccc(OCc3ccccc3)nn2)n1`, the z-score was 0.086.

For the compound `COC(=O)c1ccc(Cl)c(NC(=O)CN2CCC(C)CC2)c1`, the z-score was -0.182. `O=C(O)C1CSC(c2ccccc2)N1C(=O)c1ccco1` (centres undefined) gave a z-score of 0.883. For `COc1ccccc1N=c1oc2c(OC)cccc2cc1C(=O)NCc1ccco1`, the z-score was -0.0584. Turning to `CC12CCC(C(=O)NC(c3ccccc3)c3ccccc3)(OC1=O)C2(C)C` (centres undefined), the z-score is -0.0545. For `Cn1nnnc1SCc1cc(=O)[nH]c2ccccc12` the value was -0.491; for `O=S(=O)(Nc1ncccc1O)c1ccc(Cl)cc1`, 0.0829; for `Cc1ccc(NC(=O)C(C)Sc2nnc(-c3cccnc3)o2)cc1` (centres undefined), 0.0967. Compound `CC(C)(NO)/C(=N\O)c1ccccc1` returned a z-score of -0.27. Compound `Cc1cc(CSc2ccccc2)ccc1NC(=O)c1cccc([N+](=O)[O-])c1` showed a z-score of -0.274.
